The record followed here is the BET-seq Pho4 binding data (Le et al. 2018).

This is one part of the list. Values were computed here from the reads of four pooled replicates and scatter widely.

The target in this experiment is T1, Pho4 (S. cerevisiae) (UniProt P07270).
T1 sequence: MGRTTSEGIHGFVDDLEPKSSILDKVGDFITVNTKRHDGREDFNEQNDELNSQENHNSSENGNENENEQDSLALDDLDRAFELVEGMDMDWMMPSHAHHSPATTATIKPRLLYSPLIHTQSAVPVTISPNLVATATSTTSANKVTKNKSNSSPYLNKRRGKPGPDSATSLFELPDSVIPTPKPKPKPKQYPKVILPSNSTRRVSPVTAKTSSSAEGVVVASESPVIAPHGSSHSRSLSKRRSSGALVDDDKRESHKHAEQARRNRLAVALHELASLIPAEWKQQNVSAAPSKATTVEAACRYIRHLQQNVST
In words: relative binding free energy (BET-seq); higher = weaker binding. As to conditions: reference: library average.
Regarding AATATCACGTGGTATT, the “relative binding free energy” value was -0.01 kcal/mol.
In the case of TTCGGCACGTGAGCTG, the “relative binding free energy” value was 0.09 kcal/mol.
Under AGGTACACGTGAGTGG stands 0.3 kcal/mol; under AACGGCACGTGAGTGT, 0.18 kcal/mol; under GGTCGCACGTGACAGG, 0.09 kcal/mol.
Under GCGTACACGTGGTTAG stands 0.09 kcal/mol; under GTCTGCACGTGGGGTC, -0.16 kcal/mol; under TAATGCACGTGGTAGG, -0.07 kcal/mol.
Under AGTCTCACGTGGTTGG stands 0.18 kcal/mol.
As to AGGTCCACGTGATGGA, the “relative binding free energy” value was determined as 0.17 kcal/mol.
Under CGTAGCACGTGGATGA stands 0 kcal/mol.
Under AGTGGCACGTGAATGT stands 0.09 kcal/mol; under TGGGCCACGTGGTAAT, 0 kcal/mol.
Under AGCCGCACGTGTTTGG stands 0.03 kcal/mol; under CGTGGCACGTGTAATA, 0.03 kcal/mol.
On to TGGTGCACGTGGCTCG, for which the “relative binding free energy” value is -0.09 kcal/mol.
On to AGGTGCACGTGTTCAG, for which the “relative binding free energy” value is -0.03 kcal/mol.
Under TCGTCCACGTGGGGGG stands -0.15 kcal/mol; under TTGTACACGTGATGTG, 0.23 kcal/mol.
Under TCTAGCACGTGTTTGT stands -0.02 kcal/mol; under CGAGGCACGTGGGTTG, -0.28 kcal/mol; under AGATTCACGTGTTGTT, 0.15 kcal/mol.
Under TTTTGCACGTGCTGTA stands -0.14 kcal/mol.
Turning to TTTTCCACGTGTTTGG, the “relative binding free energy” value was 0.13 kcal/mol.
Under TAATACACGTGGGGTA stands -0.1 kcal/mol; under TCGGGCACGTGGGGGT, -0.16 kcal/mol; under ATTGCCACGTGAATTG, 0.26 kcal/mol.
TGATGCACGTGGGCGT: the “relative binding free energy” value was -0.11 kcal/mol.
Under CCTTGCACGTGTGTTG stands 0.01 kcal/mol.
Take GTCGGCACGTGTTGAG: the “relative binding free energy” value stood at 0.08 kcal/mol.
For TATATCACGTGTGATA, the “relative binding free energy” value was found to be 0.24 kcal/mol.
Under TTTGCCACGTGGTTCT stands -0.1 kcal/mol; under GTGTGCACGTGCCAGT, -0.07 kcal/mol; under TAATTCACGTGTTTTG, 0.27 kcal/mol.
With AGAGTCACGTGTCTGG, the “relative binding free energy” value was 0.19 kcal/mol.
In the case of TTTAACACGTGGTTTA, the “relative binding free energy” value was -0.07 kcal/mol.
Under ATGATCACGTGTTGTA stands 0.11 kcal/mol.
With GGGTGCACGTGTCACG, the “relative binding free energy” value is -0.06 kcal/mol.
Under GGCAACACGTGTTGGG stands 0.06 kcal/mol.
For the sequence TTACTCACGTGGGGAG, the “relative binding free energy” value was -0.02 kcal/mol.
Under ATGGTCACGTGTAGAC stands 0.15 kcal/mol; under TGGGTCACGTGACATA, 0.19 kcal/mol.
Under TTGCTCACGTGCATGT stands 0.12 kcal/mol; under GGAGGCACGTGGGTTT, -0.13 kcal/mol; under GTAGGCACGTGGGAAC, -0.06 kcal/mol.
Under TGTCACACGTGTTGGA stands 0.12 kcal/mol.
On to TTCGGCACGTGGAGAG, for which the “relative binding free energy” value was found to be 0.01 kcal/mol.
Under TAAGACACGTGGTTTA stands -0.04 kcal/mol; under GATTGCACGTGCTGTA, 0.07 kcal/mol.
Under AGGGTCACGTGTGAGA stands 0.24 kcal/mol; under CGGGTCACGTGCGTAG, 0.19 kcal/mol.
For ATGGCCACGTGGGAAT, the “relative binding free energy” value is -0.05 kcal/mol.
Under GGTATCACGTGGTACG stands 0.1 kcal/mol; under TCTAGCACGTGGAGGG, -0.04 kcal/mol.
Under TCAAGCACGTGATGGA stands 0.05 kcal/mol; under AGGTTCACGTGGGAGG, 0.19 kcal/mol.
As for TAGGGCACGTGTGTTT, the “relative binding free energy” value is -0.01 kcal/mol.
Under GGGTTCACGTGGTGTG stands 0.28 kcal/mol.
Under GGGAACACGTGTATGA stands 0.07 kcal/mol; under GGTTGCACGTGGGGTA, -0.01 kcal/mol.
Under TGGAGCACGTGACTGT stands -0.02 kcal/mol; under TTTTTCACGTGGCTGT, 0.17 kcal/mol; under TGTGTCACGTGGGGCT, 0.07 kcal/mol.
With GGGCCCACGTGGCGGT, the “relative binding free energy” value was -0.11 kcal/mol.
Under AGAATCACGTGTGTAA stands 0.29 kcal/mol; under AATGCCACGTGGGTGA, -0.27 kcal/mol; under TTGTACACGTGGGACT, 0.07 kcal/mol.
Turning to ATTTACACGTGCATGT, the “relative binding free energy” value turned out to be 0.17 kcal/mol.
Under GGGGACACGTGATAAG stands 0.24 kcal/mol; under TCGCGCACGTGGGGTT, -0.26 kcal/mol; under GCAAGCACGTGTGTGG, 0 kcal/mol.
Under GTGAACACGTGTTGTT stands 0.03 kcal/mol; under GGTGGCACGTGATAAT, 0.21 kcal/mol.
For the sequence TTGTGCACGTGTTGGA, the “relative binding free energy” value was 0.09 kcal/mol.
For the sequence TTGTTCACGTGTTAGA, the “relative binding free energy” value amounted to 0.34 kcal/mol.
As to AGGCACACGTGACGGT, the “relative binding free energy” value was found to be 0.23 kcal/mol.
Under TGGGGCACGTGGTGCG stands -0.17 kcal/mol.
Under TCTTACACGTGATGGG stands 0.27 kcal/mol.
Under GGTGACACGTGGATGC stands 0.08 kcal/mol.
Regarding TGTGCCACGTGTCGAG, the “relative binding free energy” value is -0.01 kcal/mol.
As to GGGAGCACGTGAGGGC, the “relative binding free energy” value is 0.16 kcal/mol.
As for AGGATCACGTGGAAAG, the “relative binding free energy” value is 0.13 kcal/mol.
Under ATTAGCACGTGGAATA stands 0.07 kcal/mol; under ACGTTCACGTGGTTTA, 0.11 kcal/mol.
Under AGCGGCACGTGTCGGG stands -0.05 kcal/mol.
For ACGGGCACGTGTTTTG, the “relative binding free energy” value was 0.02 kcal/mol.
Under AGTTTCACGTGTTCTG stands 0.36 kcal/mol; under CGTGGCACGTGTGTCT, -0.09 kcal/mol.
As for TGTCGCACGTGAGGTC, the “relative binding free energy” value was 0.06 kcal/mol.
Under GGTGTCACGTGGCATG stands 0.07 kcal/mol; under GGGTGCACGTGCCGTT, -0.06 kcal/mol.
Under TCTGGCACGTGGGAGC stands -0.19 kcal/mol; under GATTTCACGTGTCTCG, 0.52 kcal/mol; under CTGATCACGTGGTTAG, 0.12 kcal/mol.
For the sequence TAGAGCACGTGGAGGG, the “relative binding free energy” value was -0.04 kcal/mol.
Under AGCTGCACGTGATGTT stands -0.09 kcal/mol.
For the sequence AGTACCACGTGAAGTT, the “relative binding free energy” value is 0.29 kcal/mol.
Under TGAGGCACGTGGTGAT stands -0.12 kcal/mol; under TGTGCCACGTGGTGTG, -0.16 kcal/mol.
Under TGGGGCACGTGTACAT stands -0.06 kcal/mol.
Under TGACGCACGTGGGGCA stands -0.32 kcal/mol; under GCTTTCACGTGTCGTT, 0.21 kcal/mol.
GAGCTCACGTGGTTGG: the “relative binding free energy” value is 0.06 kcal/mol.
Under GTTGGCACGTGGACGA stands -0.06 kcal/mol.
Under TTGTCCACGTGAGGAT stands 0.23 kcal/mol; under GATGTCACGTGTTTGA, 0.22 kcal/mol.
Under CCGTTCACGTGTAGGT stands 0.16 kcal/mol.
Regarding CTTAACACGTGGATGG, the “relative binding free energy” value stood at 0 kcal/mol.
Under CGTTTCACGTGAGTTG stands 0.44 kcal/mol; under TTTAACACGTGGGATC, 0 kcal/mol; under TAATTCACGTGATTAG, 0.24 kcal/mol.
Under TGGAGCACGTGGTTGC stands -0.05 kcal/mol; under TCAGTCACGTGGATTT, 0.13 kcal/mol.
Under TATATCACGTGGGGGA stands -0.04 kcal/mol.
On to GGTAACACGTGAGCGT, for which the “relative binding free energy” value was found to be 0.06 kcal/mol.
